About 14,000 (4.5%) of roughly 310,000 compounds showed an effect of 50% or more. Effects have a minus sign here. The list shows a part of the results.
What follows are compounds tested against human ether-à-go-go-related gene (hERG) potassium channel (human, UniProt Q12809) (assay: primary screen, population patch clamp on CHO cells stably expressing hERG).
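Also: peak tail current of the secondary pulse compared with the same well before compound.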

human ether-à-go-go-related gene (hERG) potassium channel, sequence (Q12809 whole entry, looked up): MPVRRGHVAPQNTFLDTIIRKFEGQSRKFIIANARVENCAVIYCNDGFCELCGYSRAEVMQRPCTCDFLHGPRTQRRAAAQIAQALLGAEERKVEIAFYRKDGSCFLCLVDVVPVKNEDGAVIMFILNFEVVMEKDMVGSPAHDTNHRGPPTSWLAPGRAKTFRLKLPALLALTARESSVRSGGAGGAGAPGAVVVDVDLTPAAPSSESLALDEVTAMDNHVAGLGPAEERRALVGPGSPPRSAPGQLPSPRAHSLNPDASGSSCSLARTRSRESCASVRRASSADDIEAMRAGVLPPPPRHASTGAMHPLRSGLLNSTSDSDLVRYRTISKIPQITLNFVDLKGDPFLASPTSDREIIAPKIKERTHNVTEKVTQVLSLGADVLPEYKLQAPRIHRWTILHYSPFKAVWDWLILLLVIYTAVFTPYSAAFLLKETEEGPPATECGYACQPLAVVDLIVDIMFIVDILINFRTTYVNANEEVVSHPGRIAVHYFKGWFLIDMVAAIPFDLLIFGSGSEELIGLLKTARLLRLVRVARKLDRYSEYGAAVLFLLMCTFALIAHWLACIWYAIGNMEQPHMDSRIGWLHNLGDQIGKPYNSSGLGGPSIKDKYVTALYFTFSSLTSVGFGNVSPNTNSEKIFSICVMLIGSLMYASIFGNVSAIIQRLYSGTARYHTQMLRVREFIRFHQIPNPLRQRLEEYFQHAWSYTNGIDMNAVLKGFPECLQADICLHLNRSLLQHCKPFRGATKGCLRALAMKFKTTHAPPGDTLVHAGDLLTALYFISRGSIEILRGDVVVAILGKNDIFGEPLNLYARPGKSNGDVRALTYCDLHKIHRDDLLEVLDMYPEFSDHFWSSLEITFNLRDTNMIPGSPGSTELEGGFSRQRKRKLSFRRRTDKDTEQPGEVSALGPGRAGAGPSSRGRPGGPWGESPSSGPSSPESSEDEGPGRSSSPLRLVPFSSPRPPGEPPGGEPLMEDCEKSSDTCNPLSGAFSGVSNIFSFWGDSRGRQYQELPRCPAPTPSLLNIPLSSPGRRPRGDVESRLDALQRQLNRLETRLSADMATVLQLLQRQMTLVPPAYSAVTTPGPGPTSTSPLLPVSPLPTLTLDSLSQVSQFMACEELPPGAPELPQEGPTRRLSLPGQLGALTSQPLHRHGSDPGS

Row | Structure (SMILES) | hERG current change (%, negative = inhibition) at 10uM [%]
1 | Cc1ccccc1N1C(=O)C(Cc2ccc(F)cc2)S/C1=C(\C#N)C(N)=O (centres unmarked) | 0.855
2 | Fc1cccc(Cl)c1Cc1noc(/C=C/c2ccccc2)n1 | 12.6
3 | CCC(CC)N1CCN(Cc2nc3ccccc3c(=O)n2-c2ccc(F)cc2)CC1 | -45.9
4 | O=C(N1CCCCC1)C12CC3CC(CC(C3)C1)C2 | 5.82
5 | Cc1cn(C2CCC(CO)O2)c(=O)[nH]c1=O (centres unmarked) | 18.9
6 | CC1CCCCC1NC(=O)c1ccc2c(c1)[nH]c(=O)n2C1CCCC1 (centres unmarked) | -21.6
7 | CCc1nc2ccc(C(=O)N3CCN(c4ccccc4)CC3)cc2nc1CC | -5.04
8 | CCc1ccc(NC(=S)N(Cc2ccc(Cl)cc2)Cc2ccc(C(=O)O)cc2)cc1 | 12.7
9 | COc1cc2c(cc1OC)C(C)N(C(=O)Nc1cc(C)cc(C)c1)CC2 (centres unmarked) | 4.95
10 | Cc1nc(-c2ccc(S(=O)(=O)N3CCN(c4cccc(C)c4C)CC3)cc2)co1 | -3.54
11 | O=C(CCCc1ccccc1)NCc1ccccc1Cl | -7.08
12 | O=C1C=C(O)c2cccc3cccc1c23 | 28.3
13 | Cc1cc(C)cc(Nc2ncnc3nc[nH]c23)c1 | 0.215
14 | CN1CCN(c2ccccc2NC(=O)c2ccc(-c3ccccc3[N+](=O)[O-])o2)CC1 | -67.9
15 | O=C(Nc1ccccc1C(=O)NCc1ccccc1)c1ccccc1Br | -1.98
16 | Cn1c(=O)c2cc(S(=O)(=O)NCCC(=O)NCCc3ccc(Cl)cc3)ccc2n(C)c1=O | -33.5
17 | COc1ccc(OC)c(C(C(=O)NCc2ccco2)N(C(=O)Cn2nnc3ccccc32)C(C)C)c1 (centres unmarked) | -27.6
18 | COc1cccc(NC(=O)C2CC2(c2cccc(OC)c2)c2cccc(OC)c2)c1 (centres unmarked) | 4.92
19 | Cc1ccc(NC(=O)c2cccc(S(=O)(=O)N3CCc4ccccc4C3)c2)nc1 | -38.5
20 | Cc1ccccc1NC(=O)CN1C(=O)S/C(=C\c2cccn2-c2cccc(C(=O)O)c2)C1=O | 15.8
21 | COc1ccccc1-n1cnnc1SCC(=O)Nc1ccccc1 | 7.5
22 | Cc1cc(C)c(S(=O)(=O)Nc2ccc3c4c(cccc24)CC3)c(C)c1 | 7.51
23 | c1nc(NCC2(N3CCOCC3)CCCCC2)c2ccsc2n1 | -73.3

Row | Structure (SMILES) | hERG current change (%, negative = inhibition) at 10uM [%]
24 | CCOC(=O)C(C(=O)NCCCN1CCOCC1)C1CCCCC1 (centres unmarked) | 9.9
25 | CCc1ccc(C(=O)C(C)OC(=O)Cn2cnc3c2c(=O)n(C)c(=O)n3C)cc1 (centres unmarked) | -1.98
26 | Cc1c(C(=O)OCC(=O)Nc2c(C)n(C)n(-c3ccccc3)c2=O)cccc1[N+](=O)[O-] | -6.66
27 | O.O=C(/C=C/c1ccc(O)c(O)c1)O[C@@H]1C[C@](O)(C(=O)O)C[C@@H](O)[C@H]1O | 17.9
28 | CN1CCN(C(=O)Cn2c(C(F)(F)F)nc3ccccc32)CC1 | 14.7
29 | O=C(O)CCCC(=O)NNc1ncnc2ccccc12 | 15.3
30 | COc1ccc(N/C(N)=N/c2nc(CSc3nnc(C)s3)cc(=O)[nH]2)cc1 | 19.2
31 | O=c1c([N+](=O)[O-])cccn1Cc1ccc(F)cc1Cl | 2.92
32 | O=C(NC1(C(F)(F)F)NC(=O)N(C2CCCCC2)C1=O)c1cccs1 (centres unmarked) | -1.98
33 | COCCCNC(=O)Cn1cnc2sc(C)c(S(=O)(=O)N3CCN(c4ccccc4OC)CC3)c2c1=O | -0.312
34 | NC(=S)Nc1ccc2cc[nH]c2c1 | -1.75
35 | O=C(Nc1ccc(S(=O)(=O)N2CCCCC2)cc1)C1CCN(C(=O)c2ccco2)CC1 | -24.7
36 | C=CCn1c(=O)c2ccccc2n2c(SCc3nnc(-c4ccccc4Br)o3)nnc12 | -18.8
37 | CCc1nn(CC(=O)O)c(=O)c2ccccc12 | 15.5
38 | Cc1ccc(S(=O)(=O)N(C)C)cc1NC(=O)c1sccc1Cl | 6.02
39 | O=C(NC1c2ccccc2-c2ccccc21)c1ccccc1 | 7.92
40 | Cc1ccc(-c2csc(NC(=O)CN3CCC(C(N)=O)CC3)n2)cc1 | 8.38
41 | CCCn1c2ccccc2c2cnn(CC(=O)N3CCN(C4CCCCC4)CC3)c(=O)c21 | -72.6
42 | N#Cc1c(-c2ccccc2Cl)c2c([nH]c1=O)-c1ccccc1OC2 | 16.4
43 | CCc1ccc(OCCNC(=O)c2cc(SC)ccc2Cl)cc1 | -9.28
44 | COc1ccc(/C(N)=N/OC(=O)CCC2CCCC2)cc1 | 31.5
45 | CCOC(=O)c1oc2cccc(O)c2c1CN1CCOCC1.Cl | -17.1
46 | O=[N+]([O-])c1ccc(N2CCN(c3ccccc3F)CC2)c(S(=O)(=O)N2CCOCC2)c1 | -5.12

Row | Structure (SMILES) | hERG current change (%, negative = inhibition) at 10uM [%]
47 | COc1ccc(-c2nc(CN3CCN(c4ncccn4)CC3)c(C)o2)cc1C | -21.1
48 | O=C(CSc1nnnn1C1CCCCC1)Nc1ccc(F)cc1 | 6.63
49 | COc1ccccc1/C=C/CN1CCN(Cc2ccc(C)o2)C(CCO)C1 (centres unmarked) | -12
50 | COc1ccc(Cc2nnc(NC(=O)c3ccccc3[N+](=O)[O-])s2)cc1 | 10.2
51 | OC1CCN(CC(O)C(F)(F)F)CC1 (centres unmarked) | 15.9
52 | Cc1cc(C)c2[nH]c(=O)c(CN(Cc3cccs3)C(=S)NCC3CCCO3)cc2c1 (centres unmarked) | -8.17
53 | COc1cccc(N2C(=O)CC(N3CCN(S(=O)(=O)c4ccccc4)CC3)C2=O)c1 (centres unmarked) | 6.42
54 | Cn1c(O)c(N=NC(=O)CNC(=O)c2ccccc2)c2ccccc21 | -5.92
55 | CC1CCC2CCCCC2N1C(=O)c1cc([N+](=O)[O-])cc([N+](=O)[O-])c1 (centres unmarked) | 2.18
56 | O=C(CN1CCN(c2ccccn2)CC1)N1CC(O)CO1 (centres unmarked) | 17.4
57 | C/C=C/Cn1c(SCc2ccc(C)cc2)nc2c1c(=O)[nH]c(=O)n2C | -2.64
58 | COc1cc(OC)cc(-c2cc(N)n(S(=O)(=O)c3cccc4nsnc34)n2)c1 | -4.1
59 | O=C(O)c1cc(C(=O)C2CCCCC2)c[nH]1 | 21
60 | O=C(NCc1ccccn1)/C(=C/c1ccco1)NC(=O)c1ccccc1 | -10
61 | COCCNC(=O)CSc1nc2ccccc2c2nc(C)nn12 | -11.7
62 | NC(=O)C1CCN(CC(=O)NC2CCCc3ccccc32)CC1 (centres unmarked) | 12.5
63 | NNC(=O)CCn1nnc2ccccc21 | 21.6
64 | CCOC(=O)c1c2c(c(=S)n(-c3ccccc3)c1N)CCC2 | 8.1
65 | CCOc1ccc(C2C3=C(CCCC3=O)OC(N)=C2[N+](=O)[O-])cc1 (centres unmarked) | 10.9
66 | NS(=O)(=O)c1cccc(NC(=O)CCSc2ccc(Cl)cc2)c1 | 9.47
67 | CCc1n[nH]c(=S)n1/N=C/c1cc(Br)c(OC)cc1OC | 39.5
68 | O=C(Cn1cccc1C(=O)c1ccccc1)NCc1cccs1 | 2.4
69 | O=C(O)Cc1ccc(NC(=O)Nc2cccc(Cl)c2)cc1 | 9.19

Row | Structure (SMILES) | hERG current change (%, negative = inhibition) at 10uM [%]
70 | CCNCCNc1ccc([N+](=O)[O-])c2cccnc12 | -22.8
71 | Cc1cc(=O)oc2cc(O)ccc12 | 20
72 | O=C(NCCN1C(=O)S/C(=C\c2ccc(Cl)c(Cl)c2)C1=O)c1ccc2c(c1)C(=O)N(Cc1ccncc1)C2=O | -0.0661
73 | O=C(Nc1cccc(Cl)c1)Nc1ccccc1NS(=O)(=O)c1cccs1 | 24
74 | Cc1ccc(N2CC(C(=O)NC3CCC(C)CC3)CC2=O)cc1 (centres unmarked) | 18.4
75 | COc1ccc2[nH]cc(/C=C/C(=O)c3ccccc3)c2c1 | 17.6
76 | CC1(NC(=O)c2cc(S(=O)(=O)N3CCCCC3)ccc2Cl)CCS(=O)(=O)C1 (centres unmarked) | -0.979
77 | O=C(CSc1cn(CCNC(=O)c2c(F)cccc2F)c2ccccc12)NCC1CCCO1 (centres unmarked) | 5.3
78 | C=CCNC(=S)Nc1ccc2nc(C)c(C)nc2c1 | 0.403
79 | CC(=O)n1c(-c2ccccc2)c(-c2ccccc2)n(C)c1=O | 4.06
80 | Cn1nc(CC(=O)NC2CCCCCC2)c2ccccc2c1=O | -0.318
81 | Cl.O=C(CN1CCCC1)Nc1ccc(Br)cc1 | -1.25
82 | CC1CN(O)C2CCc3nonc3C12O (centres unmarked) | 2.52
83 | CCOc1ccccc1N(CC(=O)N1CCC(C)CC1)S(=O)(=O)c1ccc(C)cc1 | -19.6
84 | Nc1nc(CN2CCN(c3cccc(Cl)c3)CC2)nc(N2CCCc3ccccc32)n1 | -6.96
85 | O=C(NC(=S)Nc1ccc2[nH]c(=O)[nH]c2c1)c1cccc(F)c1 | 19
86 | Cc1ccc(CNC(=O)CNC(=O)[C@@H]2Cc3ccccc3CN2)cc1 | -4.45
87 | COC(=O)c1ccc(CNC(=O)CNc2cc(C(F)(F)F)ccc2N2CCOCC2)cc1 | 3.34
88 | CN(C)c1ccc(C(CNS(=O)(=O)c2ccc(F)cc2)c2c[nH]c3ccccc23)cc1 (centres unmarked) | 17.3
89 | O=C(Cn1nc(-c2cccc(Cl)c2)ccc1=O)Nc1ccc(C(=O)NC2CC2)cc1 | 2.44

— PMC4336329 (PLoS ONE, 2015)
